In paper PMC5892938:
The other results are listed elsewhere or left out. At the low end of the ranking the order means little.

target: GST-SBP-SLBP (stem-loop binding protein) (UniProt Q14493); assay: targeted RNA Bind-n-Seq; details: RBNS binding buffer: 25 mM Tris pH 7.5, 150 mM KCl, 3 mM MgCl2, 0.1% Tween, 0.5 mg/mL BSA, 1 mM DTT; 27 nM protein, 750 pM RNA pool; temperature not stated; high values mean tight binding;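 note: DESeq read counts versus GST-SBP nonspecific binding control pulldown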

Row | Sequence | binding signal (log2 fold change)
1 | GGUCACGUCUCAAUCAACUCUAUCUCCAGGGAAAUCCCUGGCUAAUUCAACAGCUCGCAGUCAAG | 0.124
2 | GGUCACGUCUCAAUCAACUCAACUCCCAGGGAAAUCCCUGGUAAACUCAACAGCUCGCAGUCAAG | -0.0462
3 | GGUCACGUCUCAAUCAACUCAUUCUCCAGGGAAAGCCCUGGCUUAGUCAACAGCUCGCAGUCAAG | 0.106
4 | GGUCACGUCUCAAUCAACUCCCAAGAGGGGGGGAAAACCCCUUUACCCUCCCAUUCAACAGCUCGCAGUCAAG | 0.0861
5 | GGUCACGUCUCAAUCAACUCUAUCCCCAGGGAAAUCCCUGGUUUAUUCAACAGCUCGCAGUCAAG | -0.329
6 | GGUCACGUCUCAAUCAACUCAACGCCAGGAGUUUUCUCCUGUAAAUUCAACAGCUCGCAGUCAAG | 0.0987
7 | GGUCACGUCUCAAUCAACUCUUUCCCAGGAGUUUACUCCUGUAUACUCAACAGCUCGCAGUCAAG | 0.0263
8 | GGUCACGUCUCAAUCAACUCAUUUUCAGGAGUUUUCUCCUGCUUUGUCAACAGCUCGCAGUCAAG | 0.0906
9 | GGUCACGUCUCAAUCAACUCAUUCUCCAGGGAAAUCCCUGGUUUUCUCAACAGCUCGCAGUCAAG | -0.283
10 | GGUCACGUCUCAAUCAACUCAUCCUCCAGGGAAACCCCUGGUAUAUUCAACAGCUCGCAGUCAAG | -0.0551
11 | GGUCACGUCUCAAUCAACUCCAAAGAGGGGGGGAAAACCCCUUUGCCCUCAUCCUCAACAGCUCGCAGUCAAG | -0.398
12 | GGUCACGUCUCAAUCAACUCAUUUCCCAGGGAAAUCCCUGGUUUUUUCAACAGCUCGCAGUCAAG | -0.0723
13 | GGUCACGUCUCAAUCAACUCCAUCGAGGGGGGGAAAACCCCUUUACCCUCAAUAUCAACAGCUCGCAGUCAAG | 0.429
14 | GGUCACGUCUCAAUCAACUCUAUAGAGGGGGGGAAAACCCCUUUACCCUCAAAAUCAACAGCUCGCAGUCAAG | 0.178
15 | GGUCACGUCUCAAUCAACUCAAUUCCCAGGGAAACCCCUGGCAUUUUCAACAGCUCGCAGUCAAG | 0.0467
16 | GGUCACGUCUCAAUCAACUCUAUCUCCAGGGAAAGCCCUGGCUAUCUCAACAGCUCGCAGUCAAG | -0.0753
17 | GGUCACGUCUCAAUCAACUCUAUCCCCAGGGAAACCCCUGGUUAUUUCAACAGCUCGCAGUCAAG | 0.0533
18 | GGUCACGUCUCAAUCAACUCAUUCCCAGGAGUUUACUCCUGUUAAUUCAACAGCUCGCAGUCAAG | -0.244
19 | GGUCACGUCUCAAUCAACUCACAAGAGGGGGGGAAAACCCCUUUGCCCUCCGUAUCAACAGCUCGCAGUCAAG | 0.416
20 | GGUCACGUCUCAAUCAACUCAUCAGAGGGGGGGAAAACCCCUUUACCCUCAAUUUCAACAGCUCGCAGUCAAG | -0.0652
21 | GGUCACGUCUCAAUCAACUCUUCCUCCAGGGAAAACCCUGGUAAAUUCAACAGCUCGCAGUCAAG | 0.015
22 | GGUCACGUCUCAAUCAACUCUUUUCCCAGGGAAAGCCCUGGCUAACUCAACAGCUCGCAGUCAAG | -0.216
23 | GGUCACGUCUCAAUCAACUCUAUCUCAGGAGUUUCCUCCUGUUAUUUCAACAGCUCGCAGUCAAG | -0.145
24 | GGUCACGUCUCAAUCAACUCAACGCCAGGAGUUUCCUCCUGUUUUUUCAACAGCUCGCAGUCAAG | 0.0306

Row | Sequence | binding signal (log2 fold change)
25 | GGUCACGUCUCAAUCAACUCAACUCCCAGGGAAAACCCUGGUUAAUUCAACAGCUCGCAGUCAAG | 0.246
26 | GGUCACGUCUCAAUCAACUCAUCUCCAGGAGUUUACUCCUGUAUACUCAACAGCUCGCAGUCAAG | 0.156
27 | GGUCACGUCUCAAUCAACUCUAUUUCCAGGGAAAACCCUGGCUAUUUCAACAGCUCGCAGUCAAG | 0.059
28 | GGUCACGUCUCAAUCAACUCAUCCCCCAGGGAAAACCCUGGUUUACUCAACAGCUCGCAGUCAAG | -0.178
29 | GGUCACGUCUCAAUCAACUCAACUUCAGGAGUUUGCUCCUGCUAUCUCAACAGCUCGCAGUCAAG | -0.0238
30 | GGUCACGUCUCAAUCAACUCAUUUUCAGGAGUUUACUCCUGUAUAUUCAACAGCUCGCAGUCAAG | -0.084
31 | GGUCACGUCUCAAUCAACUCUUUUCCAGGAGUUUACUCCUGCUUUUUCAACAGCUCGCAGUCAAG | 0.0197
32 | GGUCACGUCUCAAUCAACUCUUUCCCCAGGGAAAUCCCUGGCAAUUUCAACAGCUCGCAGUCAAG | -0.0795
33 | GGUCACGUCUCAAUCAACUCAGUUUCAGGAGUUUUCUCCUGCUUUUUCAACAGCUCGCAGUCAAG | -0.0434
34 | GGUCACGUCUCAAUCAACUCAGUCCCCAGGGAAAGCCCUGGCAUUUUCAACAGCUCGCAGUCAAG | -0.459
35 | GGUCACGUCUCAAUCAACUCCACAGAGGGGGGGAAAACCCCUUUGCCCUCCAAUUCAACAGCUCGCAGUCAAG | -0.0165
36 | GGUCACGUCUCAAUCAACUCUUUCUCAGGAGUUUCCUCCUGCAAACUCAACAGCUCGCAGUCAAG | 0.000456
37 | GGUCACGUCUCAAUCAACUCCUUAGAGGGGGGGAAAACCCCUUUGCCCUCACAAUCAACAGCUCGCAGUCAAG | 0.226
38 | GGUCACGUCUCAAUCAACUCAAUUUCAGGAGUUUACUCCUGUUAAUUCAACAGCUCGCAGUCAAG | 0.103
39 | GGUCACGUCUCAAUCAACUCAUUUGCAGGAGUUUUCUCCUGGUAUCUCAACAGCUCGCAGUCAAG | -0.0839
40 | GGUCACGUCUCAAUCAACUCUAACGAGGGGGGGAAAACCCCUUUACCCUCAUAUUCAACAGCUCGCAGUCAAG | 0.263
41 | GGUCACGUCUCAAUCAACUCAAUCCCAGGAGUUUUCUCCUGCUUUCUCAACAGCUCGCAGUCAAG | 0.247
42 | GGUCACGUCUCAAUCAACUCUUUCUCCAGGGAAAGCCCUGGUUUACUCAACAGCUCGCAGUCAAG | 0.057
43 | GGUCACGUCUCAAUCAACUCAUUCCCAGGAGUUUCCUCCUGCUUACUCAACAGCUCGCAGUCAAG | 0.0267
44 | GGUCACGUCUCAAUCAACUCUUUCUCCAGGGAAAGCCCUGGCAAAUUCAACAGCUCGCAGUCAAG | 0.146
45 | GGUCACGUCUCAAUCAACUCAUCCUCAGGAGUUUACUCCUGUUAUCUCAACAGCUCGCAGUCAAG | -0.171
46 | GGUCACGUCUCAAUCAACUCAUCUCCCAGGGAAACCCCUGGUUAACUCAACAGCUCGCAGUCAAG | 0.13
47 | GGUCACGUCUCAAUCAACUCAUCGUCAGGAGUUUACUCCUGUUAUCUCAACAGCUCGCAGUCAAG | -0.0175
